Assay results: paper PMC4336329 (PLoS ONE, 2015)
About 14,000 (4.5%) of roughly 310,000 compounds showed an effect of 50% or more. Effects have a minus sign here. The list shows a part of the results.

Target: human ether-à-go-go-related gene (hERG) potassium channel (human, UniProt Q12809)
Test: primary screen, population patch clamp on CHO cells stably expressing hERG
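Also: peak tail current of the secondary pulse compared with the same well before compound.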

Sequence of human ether-à-go-go-related gene (hERG) potassium channel (Q12809 whole entry, looked up): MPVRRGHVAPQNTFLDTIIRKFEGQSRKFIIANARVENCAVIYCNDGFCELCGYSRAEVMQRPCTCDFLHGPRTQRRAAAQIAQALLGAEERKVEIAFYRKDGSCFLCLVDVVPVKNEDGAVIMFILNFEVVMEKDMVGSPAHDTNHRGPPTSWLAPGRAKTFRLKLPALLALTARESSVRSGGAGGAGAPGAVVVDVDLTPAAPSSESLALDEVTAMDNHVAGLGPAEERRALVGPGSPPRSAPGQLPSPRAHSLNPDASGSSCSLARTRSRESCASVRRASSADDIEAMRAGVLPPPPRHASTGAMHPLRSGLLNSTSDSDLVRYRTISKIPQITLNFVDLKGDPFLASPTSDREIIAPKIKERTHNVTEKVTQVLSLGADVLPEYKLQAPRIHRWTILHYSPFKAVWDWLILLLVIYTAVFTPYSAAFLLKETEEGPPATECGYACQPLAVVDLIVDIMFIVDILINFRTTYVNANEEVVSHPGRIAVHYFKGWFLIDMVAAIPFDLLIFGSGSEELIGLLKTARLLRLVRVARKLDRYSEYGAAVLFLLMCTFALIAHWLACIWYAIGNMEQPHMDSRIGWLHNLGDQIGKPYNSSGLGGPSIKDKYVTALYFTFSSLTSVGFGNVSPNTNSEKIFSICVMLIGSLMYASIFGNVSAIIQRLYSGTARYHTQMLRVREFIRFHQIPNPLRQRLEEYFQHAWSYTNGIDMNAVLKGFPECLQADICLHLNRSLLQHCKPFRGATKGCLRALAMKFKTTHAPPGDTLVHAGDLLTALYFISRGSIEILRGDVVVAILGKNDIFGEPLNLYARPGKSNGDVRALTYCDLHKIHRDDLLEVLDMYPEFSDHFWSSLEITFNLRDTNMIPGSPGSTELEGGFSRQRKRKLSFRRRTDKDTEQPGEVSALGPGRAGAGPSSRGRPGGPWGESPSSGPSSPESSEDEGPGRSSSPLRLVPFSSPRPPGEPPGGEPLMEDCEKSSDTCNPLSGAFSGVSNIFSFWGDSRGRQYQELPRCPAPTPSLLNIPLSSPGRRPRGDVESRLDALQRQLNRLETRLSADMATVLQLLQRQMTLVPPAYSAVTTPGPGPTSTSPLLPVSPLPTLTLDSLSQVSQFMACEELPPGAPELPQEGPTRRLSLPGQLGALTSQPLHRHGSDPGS

SMILES | hERG current change (%, negative = inhibition) at 10uM [%]
COc1cccc(CNc2ccc(S(N)(=O)=O)cc2)c1OC | -8.94
Cc1ccc(S(=O)(=O)C2(C(=O)Nc3ccc(Br)cc3)CC2)cc1 | -7.69
Br.CN(C)C1=NCC(CSC(=N)N)S1 (centres unmarked) | 36.9
O=C(N/N=C/c1ccc[nH]1)c1ccccc1OCc1ccc(F)cc1 | -0.33
Cc1ccc(S(=O)(=O)/N=C2\C(=O)c3ccccc3C([O-])=C2n2cc[n+](CCC(C)C)c2)cc1 | -8.73
CC(CN1CCCC1)OC(=O)Cc1ccc(Cl)cc1.Cl (centres unmarked) | -8.89
Cc1cc(Nc2ccccc2)n(-c2ccccc2)n1 | -14.5
CCN(CC)CCCC(C)NC1=NCCCCC1 (centres unmarked) | 2.82
COc1ccc2c(Cn3cnc4cc([N+](=O)[O-])ccc4c3=O)cc(=O)oc2c1 | -5.58
CCOC(=O)C1CCCN(CC(=O)Nc2c(C(=O)OC)[nH]c3ccc(Br)cc23)C1 (centres unmarked) | -30.9
CC(C)C(NC(=O)c1c(F)cccc1F)C(=O)N1CCN(S(=O)(=O)c2ccc(F)cc2)CC1 (centres unmarked) | -12.3
CCOC(=O)c1c(S(=O)(=O)N2CCN(Cc3ccccc3)CC2)c(C)n(C)c1C | -6.19
NC(=O)C1(N2CCCCC2)CCN(C(=S)Nc2cccc(Cl)c2)CC1 | 9.34
CCOC(=O)Cc1csc(SCC(=O)Nc2oc(C)c3c(C)n[nH]c(=O)c23)n1 | -10.9
FC(F)(F)c1cccc(Cc2noc(CN3C[C@@H]4CCC[C@H]3C4)n2)c1 | -19
Cc1cc(C(=O)OCC(=O)NC(C)(C)C)c2ccccc2n1 | -3.4
O=C(COC(=O)c1ccc2c(c1)OCCO2)Nc1cc(Cl)ccc1Cl | 16.7
CCCN(Cc1nnc(-c2ccccc2Cl)o1)C(=O)c1ccc(C)c(S(=O)(=O)N2CCOCC2)c1 | -55.8
CCOc1ccc(/C=N/OC(C)C(=O)NCc2ccc3c(c2)OCO3)cc1 (centres unmarked) | -10.3
Cc1cc(C)c(-c2cc(NC(=O)CSc3nncn3C)n(-c3ccccc3)n2)cc1C | -34.4
O=C(COC(=O)Cc1ccsc1)Nc1ccc(Br)cc1F | 14.8
CCC(Sc1nc(C)cc(=O)[nH]1)C(=O)Nc1sc2c(c1C#N)CCCC2 (centres unmarked) | -19.1

SMILES | hERG current change (%, negative = inhibition) at 10uM [%]
CCOC(=O)N1CCN(Cc2ccc3c(c2)OCO3)CC1 | 8.58
CCC1=Nc2cc(C(=O)NCCN3CCOCC3)ccc2Sc2ccccc21 | -15.3
COc1ccc(S(=O)(=O)N(C)CC(=O)N2CCCCCC2)cc1OC | 8.53
Cc1cc(/C=C2\SC(N)=NC2=O)c(C)n1-c1ccc(F)cc1 | 22.8
CCCCN(C)C(=O)c1nc2ccccn2c1CN1CCN(c2cnccn2)CC1 | -12.4
COc1ccc(C)cc1S(=O)(=O)N1CCC(C(=O)NCCc2ccccc2)CC1 | -4.2
CCCCOc1ccc(C(=O)NCC2(c3ccccc3)CCOCC2)cc1 | -42.4
COc1ccc(C2OC(=O)c3ccccc3S2)cc1 (centres unmarked) | 19.6
O=c1[nH]c(CSc2nnc(NCCCN3CCOCC3)s2)nc2cc(Cl)ccc12 | 1.02
Cc1cccc(N2C(N)=C(C#N)C(C#N)(C#N)C2c2ccccc2)c1 (centres unmarked) | -2.39
COc1ccccc1N1CCN(S(=O)(=O)c2ccc(-n3cnnn3)cc2)CC1 | -72
COc1ccc(CNC(=O)CSc2nnnn2C)cc1OC | 20.7
CCNc1nc(OCC)nc(N2CCC(Cc3ccccc3)CC2)n1 | 13.3
COc1ccc(CC(=O)Nc2ccccc2Oc2ccccc2)cc1 | -4.21
COc1ccc(C(=O)CSc2nnc(CNC(=O)c3ccc(S(=O)(=O)N(C)C)cc3)o2)cc1 | 4.22
CC(=O)Nc1ccc(S(=O)(=O)N2CCC(C(=O)c3ccc(Cl)cc3)CC2)cc1 | -6.83
O=C1CNC(=S)N1c1nc2ccccc2s1 | 21.6
Cc1ccc(S(=O)(=O)CCC(=O)Oc2ccc(-c3nnco3)cc2)cc1 | 14.3
CCCCOc1cccc(C(=O)NC(=S)Nc2cccc(C(F)(F)F)c2)c1 | 5.31
O=C1NCCc2c1[nH]c1c(Cl)ccc(Cl)c21 | -2.58
COc1cc(OC)cc(-c2ncc3ccccn23)c1.O=C(O)C(=O)O | -5.52
CCC(=NCc1ccco1)c1c(O)n(-c2ccc(C)cc2)c(=O)[nH]c1=O | -4.19
